A lower IC50 marks a more sensitive line; fits outside the tested doses are given as limits. AUC is the area under the same curve over the 256-fold range up to the top dose, as a fraction: 1 means no effect, lower means more sensitive. An inferred top dose comes from the curve model; the source does not state it.
Compound: C=CC(=O)Nc1cccc(Nc2nc(NC3CCC(N(C)C)CC3)nc3c2ncn3C(C)C)c1 [WZ3105]
Test: Viability of human cancer cell lines after 72 h of drug (GDSC screen)
Details: top dose inferred
Description: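 Human cancer cell lines in 384-well plates, medium with 10% serum, drug for 72 h over a 256-fold dose range (nine 2-fold or five 4-fold steps up to the top dose). Adherent lines were fixed and stained with the nucleic acid dye Syto60, suspension lines read with resazurin; signal relative to control wells, capped at 0 and 100%. One two-parameter sigmoid per drug and line, fitted in a mixed model over all curves with the slope shared within a line.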

KNS-42 (glioma, adherent, top dose 1.28 µM)
AUC: 0.952 | IC50: > 1280 nM

KNS-81-FD (glioma, adherent, top dose 1.28 µM)
AUC: 0.91 | IC50: > 1280 nM

KON (head and neck, adherent, top dose 1.28 µM)
AUC: 0.978 | IC50: > 1280 nM

KOPN-8 (B-cell leukaemia, suspension, top dose 1.28 µM)
AUC: 0.623 | IC50: 165 nM

KOSC-2 (head and neck, adherent, top dose 1.28 µM)
AUC: 0.816 | IC50: 752 nM

KP-2 (pancreas, adherent, top dose 1.28 µM)
AUC: 0.681 | IC50: 268 nM

KP-3 (pancreas, adherent, top dose 1.28 µM)
AUC: 0.901 | IC50: > 1280 nM

KP-4 (pancreas, adherent, top dose 1.28 µM)
AUC: 0.765 | IC50: 449 nM

KP-N-YN (neuroblastoma, adherent, top dose 1.28 µM)
AUC: 0.911 | IC50: > 1280 nM

KP-N-YS (neuroblastoma, adherent, top dose 1.28 µM)
AUC: 0.782 | IC50: 620 nM

KS-1 (glioma, adherent, top dose 1.28 µM)
AUC: 0.601 | IC50: 163 nM

KU812 (chronic myeloid leukaemia, suspension, top dose 1.28 µM)
AUC: 0.574 | IC50: 125 nM

KU-19-19 (bladder, adherent, top dose 1.28 µM)
AUC: 0.815 | IC50: 704 nM

KURAMOCHI (ovary, adherent, top dose 1.28 µM)
AUC: 0.74 | IC50: 441 nM

KY821 (leukaemia, suspension, top dose 1.28 µM)
AUC: 0.852 | IC50: 798 nM

KYAE-1 (oesophagus, suspension, top dose 1.28 µM)
AUC: 0.769 | IC50: 532 nM

KYM-1 (rhabdomyosarcoma, adherent, top dose 1.28 µM)
AUC: 0.991 | IC50: > 1280 nM

KYSE-50 (oesophagus, adherent, top dose 1.28 µM)
AUC: 0.864 | IC50: 964 nM

KYSE-70 (oesophagus, adherent, top dose 1.28 µM)
AUC: 0.915 | IC50: > 1280 nM

KYSE-140 (oesophagus, adherent, top dose 1.28 µM)
AUC: 0.665 | IC50: 245 nM

KYSE-150 (oesophagus, adherent, top dose 1.28 µM)
AUC: 0.922 | IC50: > 1280 nM

KYSE-180 (oesophagus, adherent, top dose 1.28 µM)
AUC: 0.894 | IC50: > 1280 nM

KYSE-220 (oesophagus, adherent, top dose 1.28 µM)
AUC: 0.736 | IC50: 393 nM

KYSE-270 (oesophagus, adherent, top dose 1.28 µM)
AUC: 0.921 | IC50: > 1280 nM

KYSE-410 (oesophagus, adherent, top dose 1.28 µM)
AUC: 0.895 | IC50: > 1280 nM

KYSE-450 (oesophagus, adherent, top dose 1.28 µM)
AUC: 0.73 | IC50: 345 nM

KYSE-510 (oesophagus, adherent, top dose 1.28 µM)
AUC: 0.933 | IC50: > 1280 nM

KYSE-520 (oesophagus, adherent, top dose 1.28 µM)
AUC: 0.853 | IC50: > 1280 nM

L-363 (myeloma, suspension, top dose 1.28 µM)
AUC: 0.367 | IC50: 36.4 nM

L-428 (Hodgkin lymphoma, suspension, top dose 1.28 µM)
AUC: 0.986 | IC50: > 1280 nM

L-540 (Hodgkin lymphoma, suspension, top dose 1.28 µM)
AUC: 0.869 | IC50: 969 nM

L-1236 (Hodgkin lymphoma, suspension, top dose 1.28 µM)
AUC: 0.745 | IC50: 351 nM

LAMA-84 (chronic myeloid leukaemia, suspension, top dose 1.28 µM)
AUC: 0.894 | IC50: > 1280 nM

LAN-6 (neuroblastoma, adherent, top dose 1.28 µM)
AUC: 0.984 | IC50: > 1280 nM

LB373-MEL-D (melanoma, adherent, top dose 1.28 µM)
AUC: 0.888 | IC50: > 1280 nM

LB771-HNC (head and neck, adherent, top dose 1.28 µM)
AUC: 0.858 | IC50: > 1280 nM

LB831-BLC (bladder, adherent, top dose 1.28 µM)
AUC: 0.882 | IC50: > 1280 nM

LB996-RCC (kidney, adherent, top dose 1.28 µM)
AUC: 0.981 | IC50: > 1280 nM

LB1047-RCC (kidney, adherent, top dose 1.28 µM)
AUC: 0.979 | IC50: > 1280 nM

LB2241-RCC (kidney, adherent, top dose 1.28 µM)
AUC: 0.984 | IC50: > 1280 nM

LB2518-MEL (melanoma, adherent, top dose 1.28 µM)
AUC: 0.968 | IC50: > 1280 nM

LC4-1 (lymphoblastic leukaemia, suspension, top dose 1.28 µM)
AUC: 0.4 | IC50: 41.1 nM

LC-1-sq (lung squamous cell carcinoma, adherent, top dose 1.28 µM)
AUC: 0.743 | IC50: 454 nM

LC-2-ad (lung adenocarcinoma, adherent, top dose 1.28 µM)
AUC: 0.687 | IC50: 272 nM

LCLC-97TM1 (large cell lung carcinoma, adherent, top dose 1.28 µM)
AUC: 0.74 | IC50: 419 nM

LCLC-103H (large cell lung carcinoma, adherent, top dose 1.28 µM)
AUC: 0.71 | IC50: 293 nM

LK-2 (lung squamous cell carcinoma, adherent, top dose 1.28 µM)
AUC: 0.835 | IC50: 772 nM

LN-18 (glioma, adherent, top dose 1.28 µM)
AUC: 0.993 | IC50: > 1280 nM

LN-229 (glioma, adherent, top dose 1.28 µM)
AUC: 0.974 | IC50: > 1280 nM

LN-405 (glioma, adherent, top dose 1.28 µM)
AUC: 0.857 | IC50: > 1280 nM

LNCaP-Clone-FGC (prostate, adherent, top dose 1.28 µM)
AUC: 0.701 | IC50: 322 nM

LNZTA3WT4 (glioma, adherent, top dose 1.28 µM)
AUC: 0.986 | IC50: > 1280 nM

LOU-NH91 (lung squamous cell carcinoma, adherent, top dose 1.28 µM)
AUC: 0.968 | IC50: > 1280 nM

LOUCY (T-cell lymphoblastic leukaemia, suspension, top dose 10.24 µM)
AUC: 0.016 | IC50: < 40 nM

LOXIMVI (melanoma, semi-adherent, top dose 1.28 µM)
AUC: 0.732 | IC50: 335 nM

LP-1 (myeloma, suspension, top dose 1.28 µM)
AUC: 0.67 | IC50: 216 nM

LS-123 (large intestine, adherent, top dose 1.28 µM)
AUC: 0.785 | IC50: 754 nM

LS-180 (large intestine, adherent, top dose 1.28 µM)
AUC: 0.927 | IC50: > 1280 nM

LS-411N (large intestine, adherent, top dose 10.24 µM)
AUC: 0.427 | IC50: 388 nM
